44 compounds from PMC4336329 (PLoS ONE, 2015) can be followed below.

The structures appear in SMILES notation. About 14,000 (4.5%) of roughly 310,000 compounds showed an effect of 50% or more. The effect is printed as a negative number. The list shows a part of the results.
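Note: peak tail current of the secondary pulse compared with the same well before compound.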

For this assay, the target named is human ether-à-go-go-related gene (hERG) potassium channel (human, UniProt Q12809). Kind of assay: primary screen, population patch clamp on CHO cells stably expressing hERG.
human ether-à-go-go-related gene (hERG) potassium channel, sequence (Q12809 whole entry, looked up): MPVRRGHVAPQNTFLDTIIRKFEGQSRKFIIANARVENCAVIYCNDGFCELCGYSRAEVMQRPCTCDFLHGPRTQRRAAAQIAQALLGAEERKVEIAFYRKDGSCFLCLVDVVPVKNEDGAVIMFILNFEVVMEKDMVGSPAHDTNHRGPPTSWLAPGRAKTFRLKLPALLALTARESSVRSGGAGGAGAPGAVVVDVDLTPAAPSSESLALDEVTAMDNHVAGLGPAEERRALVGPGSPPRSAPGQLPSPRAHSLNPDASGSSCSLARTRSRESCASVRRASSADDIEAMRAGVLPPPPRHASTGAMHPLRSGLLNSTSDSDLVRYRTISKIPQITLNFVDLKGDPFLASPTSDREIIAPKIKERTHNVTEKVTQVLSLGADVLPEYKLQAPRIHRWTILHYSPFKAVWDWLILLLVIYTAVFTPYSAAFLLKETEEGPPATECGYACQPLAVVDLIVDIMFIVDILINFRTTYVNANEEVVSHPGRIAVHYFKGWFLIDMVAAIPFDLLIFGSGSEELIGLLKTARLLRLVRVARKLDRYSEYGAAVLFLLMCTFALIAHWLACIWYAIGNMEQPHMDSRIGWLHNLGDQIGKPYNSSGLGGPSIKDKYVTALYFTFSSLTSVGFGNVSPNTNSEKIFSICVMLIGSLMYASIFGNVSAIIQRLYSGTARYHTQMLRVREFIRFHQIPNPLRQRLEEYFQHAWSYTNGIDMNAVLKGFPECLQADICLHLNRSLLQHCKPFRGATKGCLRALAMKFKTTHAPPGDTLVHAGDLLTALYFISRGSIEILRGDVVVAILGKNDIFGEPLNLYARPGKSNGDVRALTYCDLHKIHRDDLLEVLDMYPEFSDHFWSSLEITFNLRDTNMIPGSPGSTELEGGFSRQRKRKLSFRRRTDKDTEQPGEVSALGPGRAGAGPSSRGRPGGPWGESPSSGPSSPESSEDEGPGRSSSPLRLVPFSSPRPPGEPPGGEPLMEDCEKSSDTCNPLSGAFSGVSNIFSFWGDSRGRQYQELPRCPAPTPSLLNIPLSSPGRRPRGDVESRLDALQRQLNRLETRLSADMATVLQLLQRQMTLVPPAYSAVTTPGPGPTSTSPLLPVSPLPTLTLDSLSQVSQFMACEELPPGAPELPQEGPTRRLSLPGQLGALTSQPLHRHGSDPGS
Take `C(=N\Nc1nc2ccccc2[nH]1)/c1cccs1`: the “hERG current change (%, negative = inhibition) at 10uM” value is -3.21%.
Take `Clc1ccc(-c2nn3c(-c4ccccc4)nnc3s2)cc1`: the “hERG current change (%, negative = inhibition) at 10uM” value is recorded as -7.2%.
As for `Cn1c(=O)[nH]c(=O)c2c1nc(N1CCOCC1)n2CCc1ccccc1`, the “hERG current change (%, negative = inhibition) at 10uM” value is given as -0.713%.
`Cc1cc(C)c2sc(N(CCCN(C)C)C(=O)c3ccc(Br)s3)nc2c1.Cl`: the “hERG current change (%, negative = inhibition) at 10uM” value is on record as -43.7%.
With `CCOc1ccccc1NC(=O)Cn1c(=O)n(-c2ccccc2)c(=O)c2oc3ccccc3c21` the figure was -16.4%; with `O=C(Cc1ccccc1)Nc1ccc(NC(=O)Cc2ccccc2)c(Cl)c1`, 34.3%.
With `CCn1c(SC(C)C(=O)OC)nnc1-c1c[nH]c2ccccc12` (centres unmarked) the figure was -5.23%; with `COc1ccc(NC2=NC(C)(C)CS2)cc1`, 12.8%; with `COc1ccc(OC(C)C(=O)NC2CC(C)(C)NC(C)(C)C2)cc1` (centres unmarked), -2.02%.
As to `O=C(NCC1CCCO1)C1CCN(S(=O)(=O)c2ccc(Br)cc2)CC1` (centres unmarked), the “hERG current change (%, negative = inhibition) at 10uM” value is given as -23.9%.
With `Br.N#Cc1ccc(OCC(=O)NN2Cc3ccccc3C2=N)cc1` the figure was 4.14%.
The same measure for `CCCOC(=O)c1ccc(Nc2nc(C)cc(=O)[nH]2)cc1`: 3.46%; for `CCOC(=O)N1CCN(C(=O)C2CCN(S(C)(=O)=O)CC2)CC1`: 13.2%; for `Cc1ccc(NC(=O)CCOc2ccccc2C)cc1C`: 1.72%.
With `O=C(CCC(=O)N1CCOc2ccccc21)NCCCN1CCCCC1` the figure was 7%.
`COc1ccc(NC(=O)CN2CC=C(c3ccccc3)CC2)cc1S(=O)(=O)N1CCOCC1`: the “hERG current change (%, negative = inhibition) at 10uM” value is recorded as -12.7%.
With `Cc1csc(NC(=O)c2cc3ccccc3o2)n1` the figure was 2.94%; with `Cc1nc2nc(-c3ccco3)nn2c(C)c1Cl`, 9.1%.
As for `CC(=O)Nc1ccc(S(=O)(=O)Nc2ccccc2N2CCOCC2)cc1`, the “hERG current change (%, negative = inhibition) at 10uM” value is 2.6%.
Regarding `CC1(C(=O)NCc2ccc(Cl)c(Cl)c2)Oc2cccnc2NC1=O` (centres unmarked), the “hERG current change (%, negative = inhibition) at 10uM” value is reported as -45.3%.
The same measure for `O=c1ncn(-c2cccc(Cl)c2)c2ccccc12`: -13.7%.
Regarding `COc1cccc(C(=O)N(c2ccc(C)cc2)C2C=CS(=O)(=O)C2)c1` (centres unmarked), the “hERG current change (%, negative = inhibition) at 10uM” value is given as 5.2%.
Regarding `CSc1ccccc1OCc1cc(C(=O)N2CCCC(C)C2)no1` (centres unmarked), the “hERG current change (%, negative = inhibition) at 10uM” value is on record as -0.622%.
With `O=C(CCNS(=O)(=O)c1ccccc1C(F)(F)F)N1CCCCCCC1` the figure was -11.6%; with `CCOC(=O)COc1ccc(C(=O)c2ccccc2)c(O)c1`, 14.8%.
With `COC(=O)c1sccc1-n1cccc1C(=O)C(=O)Nc1ccc(F)cc1` the figure was -13.5%.
In the case of `Cc1cc(NO)nc(-c2ccc(Br)cc2)n1`, the “hERG current change (%, negative = inhibition) at 10uM” value turned out to be 2.74%.
The same measure for `COc1ccc(N(C)C(=O)c2cn(CC(C)C)c(=O)c3cc(OC)c(OC)cc23)cc1`: 8.8%.
With `COCCCNC(=O)c1cc2c(s1)CS(=O)(=O)C2` the figure was -1.4%; with `O=S(=O)(Cc1ccc(Cl)cc1)N1CCN(Cc2ccc3c(c2)OCO3)CC1`, -4.23%; with `COC(=O)c1cc(NC(=O)c2ccc(C)cc2)c(=O)oc1C`, 20.9%.
With `CCn1nc(NC(=O)c2ccco2)c2cc3cc(C)ccc3nc21` the figure was 12.3%.
For `C/C(=N\Nc1nncc2ccccc12)c1ccc(O)cc1`, the “hERG current change (%, negative = inhibition) at 10uM” value is given as 7.36%.
On to `Cc1ccc(CNC(=O)Cn2ccc(NC(=O)OCc3ccccc3)nc2=O)o1`, for which the “hERG current change (%, negative = inhibition) at 10uM” value was 2.29%.
In the case of `COc1ccccc1NC(=O)C1=C(C)Nc2nc(CCCO)nn2C1c1ccc2c(c1)OCO2` (centres unmarked), the “hERG current change (%, negative = inhibition) at 10uM” value stood at 7.42%.
The same measure for `Cc1cc(C)cc(N2CC(C(=O)O)CC2=O)c1` (centres unmarked): 22.1%.
For the compound `CC1=C(C(=O)OC(C)C)C(c2ccc(Br)s2)NC(=O)N1` (centres unmarked), the “hERG current change (%, negative = inhibition) at 10uM” value was -48%.
With `CCOc1ccc(C(C)=O)cc1CN1C(=O)NC2(CCCCCCC2)C1=O` the figure was -46.5%.
The same measure for `O=C(Cc1ccccc1)Nc1ccc2c(c1)C(=O)N(CC1CCCO1)C2=O` (centres unmarked): -4.72%; for `Cc1ccc2cc(C)c(NCCO)nc2c1`: -3.56%; for `COc1ccccc1N1CCN(C(=O)c2cc3c(=O)n4ccccc4nc3s2)CC1.Cl`: -53.2%.
Take `CC(=O)Nc1sc(C)c(C)c1C(=O)OCC(=O)N(C)c1c(N)n(Cc2ccccc2)c(=O)[nH]c1=O`: the “hERG current change (%, negative = inhibition) at 10uM” value is on record as 0.508%.
Take `O=C(NCc1ccccn1)c1ccc(Cn2c(=S)[nH]c3ccccc3c2=O)cc1`: the “hERG current change (%, negative = inhibition) at 10uM” value turned out to be 6.45%.
The same measure for `CSc1nc2[nH]c3c(c2c2ncnn12)CCCC3`: -3.68%.
